The supplement of paper PMC4466236
Over roughly 33,000 sequences, “E-score (dimensionless, -0.5 to 0.5)” has its median near -0.058; the highest 2% begin near 0.35. This is one part of the list.

The sequences below were run on MvaT (assay: PBM 8-mer E-score (mean of HK and ME arrays) (E-score (dimensionless, -0.5 to 0.5)); higher = stronger relative binding preference; most listed sequences are background and not binding sites).
Procedure, shortened: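 Full-length P. aeruginosa MvaT, with glutathione S-transferase fused to its N-terminus (cloned into pTH6838 by isothermal assembly), was tested by protein binding microarray using a previously described protocol. Two universal double-stranded 60-mer arrays (ME and HK) were used, each with a constant 25-mer primer region and a variable 35-mer region covering all 8-mers. The rank-based 8-mer E-score (-0.5 to 0.5) is the mean of the two arrays, parsed with a custom Python script.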

Sequence	PBM 8-mer E-score
GGCATGCC	-0.332
CTCATGCA	-0.224
TTATTAAA	0.409
CATGCTGC	-0.164
CTGATAGA	0.0644
ATTTTCTC	0.149
AGTAGCCA	-0.2
AGATTCGA	0.0693
AAAGACCT	-0.0613
GATTGATA	0.171
CTCAAGTC	-0.11
AACGGGGC	0.0256
CCCTTATA	0.138
AAGGAAAG	-0.202
CGTAGTCC	-0.179
AAGGTGCA	-0.222
CTTGTGAA	0.132
AACGTCAA	0.152
AATATGGT	0.271
ATAGGACC	-0.0799
AAACGCCA	-0.0208
ATCGGGCA	0.0419
TCAAACCA	0.0221
ACCAGCAG	-0.232
CACTCTAC	0.0171

Sequence	PBM 8-mer E-score
CGGTGGTC	-0.24
AGCCAGGA	-0.196
ACATTCAT	0.0623
GTATTAGA	0.267
GCGGAGCC	-0.277
GGCTCACC	-0.247
TGCAACAA	0.201
ATACCACC	0.102
CATGCTAG	-0.123
CATATGTC	0.121
ATAAGATG	0.0857
AATTCAAG	0.0404
ACTTGGGA	0.143
GCTCAAAA	0.0525
CTCTATCC	-0.0794
CTTGCTCC	-0.0951
GTCGACTA	0.0337
GGTTCTAC	-0.17
CGGTGTGA	-0.0771
GAATGCGC	-0.149
ATGACTAA	0.208
CCTGGGGA	-0.214
CAAGAGCG	-0.109
ACCGATGC	-0.306
GTAGACAC	-0.0921

Sequence	PBM 8-mer E-score
AATGTGGA	0.122
CATTCAGG	-0.0753
CATAGGGC	-0.137
GACGGGTA	0.0024
ACAGGCAA	0.0171
GTGAAGCA	-0.134
GCCAAAGA	-0.154
AGAGCGGC	-0.266
ATATGATC	0.283
ATTGCCAA	0.105
CATGAGAA	-0.0314
CCTGGGTA	-0.145
CTTCCGTC	-0.0303
AGCCCCAT	-0.183
CCATGGGA	-0.39
CCGGGGCA	-0.218
CCATTCAC	-0.0068
AAAACCCT	-0.199
ACTCGGCG	-0.0863
CTTGCTAA	0.0366
CGTTTACA	-0.0355
CCATCTAG	-0.101
GCTGCTAC	-0.18
GATACTGA	-0.0332
CCCATTAC	-0.0724

Sequence	PBM 8-mer E-score
GGGCCGAC	-0.267
CCACCAAA	0.0699
ACCGTATG	-0.147
ACCAAGAT	0.0847
AGTGAAGG	-0.288
CAGGTAAA	0.0497
GGTTGACA	-0.0531
ACATAACT	0.268
CACACCGA	-0.119
ACAGGGAT	-0.111
ATCGAAGC	-0.0708
CATGCGAG	-0.203
GCTGAGCC	-0.287
AGCTTCAG	-0.266
AAGAAAGG	0.0684
AGAAAATG	0.201
CAGGGACC	-0.216
CGTCGTTC	-0.0551
ACCAACCA	-0.0431
GATCAGCC	-0.302
TGCAATAA	0.234
CCGTTAAG	0.0915
CGGATTGA	-0.0499
AACGTGAC	-0.0917
CGGTAGAA	0.0777

Sequence	PBM 8-mer E-score
ATTGACGG	0.011
AGCGGATC	-0.069
AGTTTGGG	0.143
AATCAGTG	0.0916
AATGATGC	-0.0782
AGCAAAAC	0.079
GAGGTACC	-0.3
AAGTGGTC	-0.137
CTGCCATC	-0.179
AGAAGTAA	0.253
ATTCTGTA	0.0768
CGACACCC	-0.217
ACCCGCTA	-0.0171
CGCATCTA	-0.0164
CATGTCCC	-0.227
AAATTATG	0.233
TACGAGGA	-0.05
AATACTTA	0.344
CCGCAGTA	-0.149
ACATTAGT	0.279
GTAAGCAA	0.0445
CTGACATC	-0.0215
ATTTCAGC	0.0672
CTTTTGGC	-0.0767
AATGCAAC	0.0933

Sequence	PBM 8-mer E-score
TAATTCGA	0.173
ATACTTAA	0.241
CAGTTTAA	0.26
ACCTGGGA	-0.206
CAGGGGCC	-0.312
ACTCGAGA	-0.0399
GCGGGCAC	-0.152
CTATAAGA	0.188
GCCCTTAC	-0.162
ACCACCAG	-0.174
TCGAAACA	0.057
CTTCCAGC	-0.0945
CTCCTCAG	-0.338
TCCGTCGA	-0.064
GTCATCGA	-0.192
CGGAGGTA	-0.185
ATGCTTTA	0.0222
TCCTGCGA	-0.167
GGCGCGCA	-0.19
CTTGTAAC	0.212
AGGTTACG	-0.0371
CTCGAGTA	-0.0253
AGAGGTCG	-0.187
AGCTTTTC	-0.0371
TGGATTAA	0.269

Sequence	PBM 8-mer E-score
GTGCTAAC	0.0349
AATTTACC	0.281
CTCCCGTA	-0.141
AGCCGAAA	0.0588
CGCTGACA	0.0257
GGCTTGCA	-0.0802
CGTGCCTC	-0.298
GAACTGAA	0.063
TAAGGACA	0.0183
GCACTTAC	-0.106
AGTCCGGC	-0.271
ATCATATA	0.338
CCACAATC	-0.0349
CTCCTATA	0.0431
ACAATGCT	0.0122
CTGACACC	-0.173
ACGGACCA	-0.1
ACATAGAG	-0.0508
CAGGAAGA	-0.0498
ACGTCTGA	-0.195
AATCGACT	0.0325
CAATAGCC	-0.065
CTAGGAGC	-0.0698
CAAAGAGG	-0.125
GATTCATA	0.179

Sequence	PBM 8-mer E-score
GACACGAC	-0.117
CCTCGCTC	-0.168
TGGTTCAA	-0.00264
ACGTGACT	-0.0198
CCTAGCAA	-0.102
ATGTGGGG	-0.112
AGCTGTAG	-0.313
CGACCGCA	-0.153
AATGACTA	0.149
AAGATGAT	0.0126
ACTATAAG	0.273
GAGGTGGC	-0.275
GCCCCCAA	-0.341
ACATTGGT	0.0399
GGTAGAAC	0.0123
ATACGTGC	0.0896
AACTACCC	0.145
CACAGGTG	-0.221
CTGCCCAA	-0.103
GTTGACAA	-0.00184
AGATTTAA	0.273
AAGGTAGA	-0.00218
CTAAGGCA	-0.0863
ACACGCGC	-0.0849
AATCGTAG	-0.0133

Sequence	PBM 8-mer E-score
CGTCCCAC	-0.209
CCGCACAA	-0.0359
ATGCACCG	-0.0477
AAAGAATT	0.23
CTCGAATA	0.253
GAGTTGCA	0.0186
AGCAACAC	-0.0627
GGTCCACC	-0.272
CAGGGTAG	-0.255
AGTCTACG	-0.11
AGCTATCA	-0.0749
GTCCAGAC	-0.116
AACGGTAA	0.0797
ACTCCCGA	0.0201
GTAGGGTA	-0.108
GAAAGAAA	0.245
GCTACTGA	-0.203
CAGTGACC	-0.18
CCTGCAAA	-0.0388
CTAGTCAC	0.0469
CCGGGCTA	-0.193
GTAAGCAC	-0.085
TACAAGAA	0.121
ACTACACC	0.154
AGGTCTCC	-0.283

Sequence	PBM 8-mer E-score
CAATAGAA	0.142
CTCTCTAA	-0.00493
ATCTCCTA	-0.128
CTGAGCCC	-0.295
GTGGCAAA	-0.0252
ATGGGGGG	-0.279
ACGTGCAC	-0.161
GCCTGAGC	-0.284
ACTACGGG	-0.131
AGGAACGC	-0.195
GAGCATTA	0.105
CTTTCGGA	-0.0214
ATCCCAAT	0.00434
AGAGCGCA	-0.139
AACTCGAC	-0.0729
AGTGCCTA	-0.197
ACTGCGAG	-0.0652
AATTTGGG	0.086
AAGAGGGT	-0.231
AGTCAATC	-0.0872
CGGGACGC	-0.276
AAGAGCTC	-0.244
CTAGCATC	-0.0697
ACAACTGT	-0.0333
AAGTGCAG	0.0681

Sequence	PBM 8-mer E-score
CACCTAGG	-0.222
ACCCGATC	-0.307
ACGCTCCG	-0.182
GATCTTAA	0.186
AGGCTTCG	-0.322
GCACGCGC	-0.000524
ACGAGATC	-0.0867
AGACTGAC	-0.123
CTTGCCTA	-0.131
ACTGGGCT	-0.163
AGTAATTG	0.293
GTTAAGGA	0.0214
CACCGGCA	-0.177
CTGCGTCA	-0.311
AGTTCGTC	0.0584
ATTGCCTA	-0.0142
CGCGTCCC	-0.132
ATGTATAG	0.266
AGCCCTCC	-0.35
CGAGGCGA	-0.187
AATACACG	0.159
AGGCGGAC	-0.132
CGACATGC	-0.207
AGTTACGA	0.115
AACTTTAG	0.211

Sequence	PBM 8-mer E-score
CTCTCTTC	-0.237
AAGCTCAA	-0.0505
GCTGAAGC	-0.298
GATATTAA	0.438
AGCGAGCG	-0.127
GATCTTAC	0.0884
GACACGTC	-0.221
CTTCAAGA	-0.13
CCGGTATC	-0.0153
AACGCAGG	-0.174
CGTTGGAC	-0.225
AAAGAAGA	0.0122
ACGGTGGC	-0.15
CAAATGGC	-0.0047
ACGATGAA	-0.0301
ACCCGGTG	-0.246
ATTGTCCC	0.108
GATAACCC	-0.0706
CGACGAAA	0.0336
CGGTCTGC	-0.102
AATTCCAT	0.174
GACTTGGA	-0.101
AGATGCGG	-0.159
GGCCAAAA	-0.144
CACCATAG	-0.0791

Sequence	PBM 8-mer E-score
CATAACAC	0.0791
CCAACCTA	-0.0513
CAGCTGCG	-0.167
CATGCAAA	-0.041
CATCTCAG	-0.134
ACGACACC	0.0154
AGCACTCA	-0.0297
GACATTTA	0.256
CATCATCA	-0.0293
AAGGGCGG	-0.217
CGTACACG	-0.0976
ACCGTAGA	-0.0538
AACCACCG	-0.0371
ACGCGGAA	-0.0119
CTATCGAA	0.0668
GTACTTCA	0.0862
CCGCATGA	-0.171
CCCCGTCC	-0.258
AAGCCGCG	-0.235
CAGCCAGG	-0.245
ACGCCATA	0.0535
CCTCTAGC	-0.191
CATGACAA	-0.0668
GAGAATAC	-0.00408
CTAGGCCA	-0.211

Sequence	PBM 8-mer E-score
TCTTGAAA	-0.0285
CTTTGTAC	0.0969
ATACCCAT	0.212
AACACGTG	-0.0185
ACTGCCAG	-0.138
GGTCTTAA	-0.0948
TGACTTAA	0.185
ACACAAGC	-0.0709
CATCCTAA	-0.091
ACACTACT	0.139
CGAATCCC	-0.0846
AAATTCAA	0.226
CTGAGGAA	0.0313
CTGCTATC	-0.0872
GGTCTTGA	-0.174
AGGGTTAA	0.0112
AAAGCCAG	-0.0944
AATTCGGG	0.0589
ACAACCCG	-0.033
